Publication PMC10975527 (Viruses, 2024)
Where two headings read alike, the source gives them in different places.

Key:
HBV rtL180M/M204V [1] = assay: microbe, parasite or virus in culture; details: Hepatitis B virus
[2] = test system: HBV rtL180M/M204V/T184G/S202I; assay: microbe, parasite or virus in culture; details: Hepatitis B virus
HBV rtL180M/M204V [3] = details: read-out: HBV DNA, EC50; Huh-7, rtL180M/M204V
[4] = test system: HBV rtL180M/M204V/T184G/S202I; details: read-out: HBV DNA, EC50; Huh-7, rtL180M/M204V/T184G/S202I

Which results are given for `COc1cc(OC(F)F)c2nc3c(n2c1)C[C@@H](C(C)(C)C)c1cc(C(=O)O)c(=O)[nH]c1-3` [AB-161]?
EC50 (HBV rtL180M/M204V [1]; Huh-7, read-out: HBsAg, EC50): 1.9 nM; EC50 ([2]; Huh-7, read-out: HBsAg, EC50): 2 nM

Which results are given for `C=C1[C@H](CO)[C@@H](O)C[C@@H]1n1cnc2c(=O)[nH]c(N)nc21` [ETV, entecavir]?
EC50 (HBV rtL180M/M204V [1]; Huh-7, read-out: HBV DNA, EC50): 280 nM; EC50 ([2]; Huh-7, read-out: HBV DNA, EC50): > 6300 nM

For `CCOC(=O)C1=C(CN2CCOCC2)NC(c2nccs2)=NC1c1ccc(F)cc1Br` (stereo not drawn) [GLS4], which EC50 (HBV rtL180M/M204V [3]) is on record?
The EC50 was 40 nM.

What about the EC50 [4] of the same compound?
The EC50 was 84 nM.
